Sequences with one replicate were seen in a single cluster, so their values are uncertain.
Each sequence was assayed on ATP (assay: switch fluorescence ratio, 500 uM ATP over buffer (Cy3 cluster intensity, sum of 5 cycles each) (fold (ratio)); higher = stronger signal-on switching upon ATP binding; sequences stand for … in TCGTCGGCAGCGTCAGATGTGTATAAGAGACAGTTTTTTTTTTTTTTTTTTTTTTTTT…TC). Settings: aptamer strand: ATP DNA aptamer (quencher-CACCTGGGGGAGTATTGCGGAGGAAGG + anchor), 100 nM annealed; ATP concentration: 500 uM; one replicate.
Procedure, shortened: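 Cy3-labelled switching-strand clusters on a modified Illumina MiSeq flow-cell were annealed to 100 nM quencher-labelled ATP aptamer, imaged in selection buffer, then imaged after 15 min with 500 uM ATP at 22 °C. Five buffer/ATP cycles ran, with NaOH stripping and re-annealing between them. The fluorescence ratio is summed target-cycle over summed buffer-cycle Cy3 intensity per cluster, averaged per switch-domain sequence. Clusters outside 100-1000 RFU were excluded.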
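Also: ATP exposure 15 min at 22 °C before imaging.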

Row | Sequence | switch fluorescence ratio
1 | GCTCTAGGGT | 0.992
2 | ATATCCATTT | 0.965
3 | TCCGTACTAG | 1.04
4 | GTAACCCGGG | 1.04
5 | TGATTTGTCT | 1.01
6 | CTTGGGGAGG | 1.05
7 | TATACGAGCC | 1.51
8 | CGACCCATTG | 1.01
9 | GACTGGCTCA | 0.991
10 | TCGATCTCGA | 1.01
11 | TGGCGTTGTC | 0.93
12 | GGGGGTGA | 0.951
13 | ATAGCGTTA | 1.03
14 | TTTAATGTG | 0.991
15 | AAGCTTTCAT | 0.971
16 | GGGGTGCTTA | 0.982
17 | AACCCGAGG | 1.03
18 | TTTAGTCTA | 1.01
19 | GATTAATCAA | 1.02
20 | CGGCATATTA | 1.05
21 | GACTCTCGGA | 1.04
22 | TTTCTTAAC | 0.97
23 | GCGCCGGAGT | 1.03
24 | GAAACAAAGA | 1.03
25 | TGCCAGGTTG | 1.69
26 | GATGGCCCTA | 1.05

Row | Sequence | switch fluorescence ratio
27 | GGTCATGAG | 0.995
28 | AAGTCGGGGT | 0.959
29 | ACATATTCGG | 1.02
30 | TCTAGGTATA | 0.983
31 | CGTAACTGAG | 1
32 | GCCGTGATGG | 1.04
33 | AAATCCACC | 1.03
34 | AAAGTGAGTC | 0.996
35 | GCAGCCGAGG | 0.969
36 | CGTCTAACTA | 1
37 | CAGGACGAG | 1.02
38 | CATCTCTCGT | 1.05
39 | ACCTAGGACC | 1.13
40 | GTTGGCTTAA | 1.02
41 | TAGATGACTT | 0.943
42 | ATTATTTTCT | 1.05
43 | GATGTACTAT | 1.04
44 | TCTCGCGTTC | 1.58
45 | TATTTCTAA | 1.01
46 | TTTCTCCCCG | 1.75
47 | TGAGTTGAGA | 0.985
48 | TGGGCCAGCT | 0.996
49 | AGCATTTCAG | 1
50 | TATCGATAGC | 1.03
51 | TCTGTAAGCA | 1.42
52 | ACCCCGTCCG | 1.12

Row | Sequence | switch fluorescence ratio
53 | AAAATTTCGT | 0.968
54 | GCGTCCAGCT | 0.947
55 | CCCTCATGCC | 1.08
56 | GTCTACGAGA | 1.03
57 | TGGGTACGTA | 1.03
58 | CGGCACAACT | 1.12
59 | GGAACACGCG | 1.03
60 | TGAGTCGTCG | 0.988
61 | GATGAGTACT | 1.01
62 | TCGTTGCTTC | 1.03
63 | TCATATCCTG | 1
64 | TAATTGTTAC | 0.996
65 | ATATATGCGT | 0.973
66 | TAGGCTTAC | 1.16
67 | GTACTGGTGG | 1.02
68 | ACCAAACTGG | 1.03
69 | ATGGTCACTC | 1.05
70 | GATTTTTTTA | 1.01
71 | CTTCGGAAAT | 1.01
72 | CAGTACCTA | 1.03
73 | GCTGCACTCC | 2.15
74 | TATTCTTGTT | 0.95
75 | CGTCCTTTCT | 1.07
76 | CGGCTTCTAG | 0.97
77 | TTCTGTCAGG | 1.18
78 | GCTGTGGGCT | 1.03

Row | Sequence | switch fluorescence ratio
79 | CCTGTACAGC | 0.976
80 | GGAGTCCCTC | 0.98
81 | CTCTACAATT | 1.11
82 | ACATTTCGAG | 1.01
83 | CGCCAGAACG | 0.989
84 | GAATTTCTTG | 1.03
85 | ATTACGTCCG | 1.13
86 | TTAACTAAAG | 1.03
87 | TATGTATTC | 0.999
88 | GAGCACACGT | 1.07
89 | CTGCTCGGTC | 1.07
90 | TGGGGCTTG | 1
91 | GAATATTTGG | 1.01
92 | TATACTTTGT | 0.968
93 | GTCCAATTAA | 0.969
94 | GTGGCTTCTG | 1
95 | CACGCTGATT | 1.04
96 | CTAGCATCCC | 1.13
97 | CCGGCGTCAT | 1.83
98 | GGAACATGCG | 1.02
99 | AAGATCTTA | 1.02
100 | TAAATACAA | 1.1
101 | CATCCATATG | 0.995
102 | AGTTTAGTC | 0.982
103 | GATCGGTTAG | 1.18
104 | CTTCTACTGG | 1.03

Row | Sequence | switch fluorescence ratio
105 | CGCTAGTGCC | 1.03
106 | ATAATCTACG | 1.05
107 | AATAGGCCCA | 0.988
108 | AGGTTTCTGT | 0.991
109 | GATGCGTAAG | 1.02
110 | GTCGCACATC | 1.62
111 | GATGGGATCC | 0.998
112 | AGTTTTTTAC | 1.07
113 | AGAGATAGTG | 0.96
114 | CCGTGGCGTA | 1.06
115 | GGTCTTGTTC | 0.932
116 | TGTATGCCCT | 1.01
117 | GCACTGAAAG | 0.978
118 | GCGGTCTATA | 1.01
119 | TGGTTTTACC | 0.981
120 | TGTAGGAAAA | 1.06
121 | ATGGGCTAAG | 1.04
122 | CGCTAGCGCC | 1.03
123 | TGCGTCTTTC | 0.998
124 | GGTGTCCTTC | 1.03
125 | GTCAAAAACG | 1.05
126 | GTTGCGACAC | 0.989
127 | GAGAACATAG | 1
128 | GATTCTGGGA | 0.963
129 | TGGTCCAAAG | 0.94
130 | TCCTGTAGGA | 1

Row | Sequence | switch fluorescence ratio
131 | CGGCTATAAA | 0.952
132 | TGCCACCCC | 1.23
133 | TATCCTTCCA | 1.35
134 | GCCCGATTTA | 1.39
135 | AGTCATAATT | 1
136 | CTCGAATGTT | 1.04
137 | AAGCGCCATC | 1.08
138 | ACTTTTTTTC | 0.977
139 | CTTGAGGCAG | 1.41
140 | CGGATTAAGC | 0.958
141 | TGTTTTATTC | 1.04
142 | CGACTGGCTT | 1.09
143 | TCTAGATACA | 1.06
144 | CGACTGAGT | 0.994
145 | AAGCTCACTC | 1.13
146 | GGCAATCGTG | 1.09
147 | ATTTGTGCGG | 0.977
148 | CTGTCGGGCC | 1.03
149 | TGCTATTAA | 0.956
150 | CGCTTTTTTC | 1.25
151 | GTATTTACCT | 1.21
152 | GAGTACTTCA | 1.02
153 | GTTGATTAGG | 1.03
154 | AATTATGGCA | 1.01
155 | AGACGGCCTG | 1.03
156 | AGAGTTGGGC | 1.06

Row | Sequence | switch fluorescence ratio
157 | GGAAAGATCG | 0.979
158 | AGTCGATGC | 0.989
159 | AAAGAATAGC | 1.01
160 | ACGTAGCGGG | 1.25
161 | CGTATTCGGG | 0.982
162 | GAGCGGGCAC | 1.01
163 | TGGTTCATAA | 1
164 | TTCGAGAGT | 1.03
165 | CCATGGTACT | 1.08
166 | GAGGTTGGTC | 1.02
167 | CGGATGCCAA | 1
168 | TGTAATAGGA | 0.964
169 | GCTGAATTTC | 1
170 | GTGTGTGAGA | 1
171 | GCAGGGGAGA | 1.04
172 | TACATTTGA | 0.967
173 | CAAACACGAA | 1.02
174 | ACCTGCATGA | 1.14
175 | CGATCGGGGT | 0.986
176 | ATGAGTAGAG | 0.963
177 | CGAACCAGGG | 1.08
178 | GAAGATTTGT | 1.02
179 | TCTGCACGGT | 1.04
180 | TATTGTACCC | 1.04
181 | TCGAGTCACG | 1.06
182 | TTCAGTGGTA | 0.957

Row | Sequence | switch fluorescence ratio
183 | TGCGGCTGTT | 0.993
184 | CGAGCACGCG | 1.03
185 | CACAGTCCGA | 1.01
186 | AAGTATAAGT | 0.981
187 | GCCATGCTCG | 0.985
188 | CTTAGTCATA | 1.02
189 | TGTTTAATTA | 0.985
190 | ACTTGACCGG | 1.09
191 | TTCGTGTTC | 0.963
192 | CCGCCGGTTT | 1.24
193 | AGGGTTGACC | 1
194 | AAGATTAACG | 0.964
195 | GTAGTCTGCT | 0.983
196 | ACATAACCCG | 1.06
197 | GGGTTCCAGA | 1.03
198 | ACTGAGGACT | 1.06
199 | AAAACGGACC | 1.13
200 | ACAAGGTCT | 0.987
201 | CGTCTACTTA | 1.03
